# Results as given in the supplement of paper PMC8728848.
# The other results are listed elsewhere or left out.
# B1: TIM1 (protein)
# chain: ADGIQSVKVGGEAGPSVTLPCHYSGAVTSMCWNRGSCSLFTCQNGIVWTNGTHVTYRKDTRYKLLGDLSRRDVSLTIENTAVSDSGVYCCRVEHRGWFNDMKITVSLEIVPPHHHHHH
# How the values were obtained:
# Experiment in all cases: glycan array binding signal (z-score within array); higher = stronger binding
# Settings in all cases: glycan notation: IUPAC condensed, linker removed
# [1] = biological target: Gal(b1-4)GlcNAc(b1-6)GalNAc
# How it was run: (§1)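 Glycan array data came from 3228 arrays in the Consortium for Functional Glycomics database, and only arrays with an available protein sequence were kept. Glycan names were put into IUPAC-condensed notation, and columns mapping to the same glycan were averaged. The binding signal is a within-array Z-score, averaged across arrays of one protein sequence run at different concentrations or buffers and across linkers. A negative Z-score can be read as non-binding.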
# [2] = biological target: Gal(b1-4)GlcNAc(b1-6)[Gal(b1-3)]GalNAc
# How it was run: as §1
# [3] = biological target: Gal(b1-4)GlcNAc(b1-6)[Gal(b1-4)GlcNAc(b1-3)]GalNAc
# How it was run: as §1
# [4] = biological target: Gal(b1-4)GlcNAc6P
# How it was run: as §1
# [5] = biological target: Gal(b1-6)Gal
# How it was run: as §1
# [6] = biological target: Gal3S(b1-3)GalNAc
# How it was run: as §1
# [7] = biological target: Gal3S(b1-3)GlcNAc
# How it was run: as §1
# [8] = biological target: Gal3S(b1-3)[Fuc(a1-4)]GlcNAc
# How it was run: as §1
# [9] = biological target: Gal3S(b1-4)Glc
# How it was run: as §1
# [10] = biological target: Gal3S(b1-4)Glc6S
# How it was run: as §1
# [11] = biological target: Gal3S(b1-4)GlcNAc
# How it was run: as §1
# [12] = biological target: Gal3S(b1-4)[Fuc(a1-3)]Glc6S
# How it was run: as §1
# [13] = biological target: Gal3S(b1-4)[Fuc(a1-3)]GlcNAc
# How it was run: as §1
# [14] = biological target: Gal3S(b1-4)[Fuc(a1-3)]GlcNAc6S
# How it was run: as §1
# [15] = biological target: Gal3S4S(b1-4)GlcNAc
# How it was run: as §1
# [16] = biological target: Gal3S6S(b1-4)GlcNAc
# How it was run: as §1
# [17] = biological target: Gal3S6S(b1-4)GlcNAc6S
# How it was run: as §1
# [18] = biological target: Gal4S(b1-4)GlcNAc
# How it was run: as §1
# [19] = biological target: Gal4S6S(b1-4)GlcNAc
# How it was run: as §1
# [20] = biological target: Gal6P(b1-4)GlcNAc
# How it was run: as §1
# [21] = biological target: Gal6S(b1-3)GlcNAc
# How it was run: as §1
# [22] = biological target: Gal6S(b1-3)GlcNAc6S
# How it was run: as §1
# [23] = biological target: Gal6S(b1-4)Glc
# How it was run: as §1
binder,measurement,setting,value
B1,glycan array binding signal (z-score),[1],-0.189
same,glycan array binding signal (z-score),[2],-0.151
same,glycan array binding signal (z-score),[3],-0.201
same,glycan array binding signal (z-score),[4],-0.164
same,glycan array binding signal (z-score),[5],-0.119
same,glycan array binding signal (z-score),[6],-0.267
same,glycan array binding signal (z-score),[7],-0.171
same,glycan array binding signal (z-score),[8],-0.15
same,glycan array binding signal (z-score),[9],-0.226
same,glycan array binding signal (z-score),[10],0.03
same,glycan array binding signal (z-score),[11],-0.14
same,glycan array binding signal (z-score),[12],0.162
same,glycan array binding signal (z-score),[13],-0.14
same,glycan array binding signal (z-score),[14],0.005
same,glycan array binding signal (z-score),[15],-0.039
same,glycan array binding signal (z-score),[16],-0.116
same,glycan array binding signal (z-score),[17],0.264
same,glycan array binding signal (z-score),[18],-0.215
same,glycan array binding signal (z-score),[19],-0.147
same,glycan array binding signal (z-score),[20],-0.296
same,glycan array binding signal (z-score),[21],-0.093
same,glycan array binding signal (z-score),[22],-0.043
same,glycan array binding signal (z-score),[23],-0.076
